Results published in PubChem BioAssay (NCATS).
This list was built around the results that the source calls inconclusive (neither active nor inactive); the mix of calls is not that of the screen. No potency is given beside an inconclusive call; the fits are too rough. Calls of active or inactive are those of the source. Calls follow the shape of the dose curve; as a rule, active = well fitted cell-killing curve with a large enough effect; inconclusive = small, poorly fitted or top-dose-only effect; inactive = no such curve, though single readings can be large or run the other way.

Assay: qHTS of pediatric cancer cell lines to identify multiple opportunities for drug repurposing: Primary screen for SK-N-SH cells (AID 1347098); also: nearly all actives have a fitted effect of over 65% in size;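 as to activity change, negative = cytotoxic: DMSO served as neutral control and bortezomib at 2.3 µM as positive control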
Conditions: SK-N-SH viability, CellTiter-Glo luminescence, 48 h; activity change, negative = cytotoxic: at 57 µM (top of the series) unless noted
Outline: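 Cells (500-1,000/well) rested 5 h, then received compounds for 48 h; metabolically active cells were measured by CellTiter-Glo luminescence. Final concentrations spanned up to 46 µM (MIPE, 11-point) or 0.59 nM-46 µM (NPC, 8-point) in primary screens, 11-point in follow-ups.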
% is scaled to controls: 0 for no effect and ±100 for the full control effect; potency is read from the fitted curve at half-maximal effect; tags tell the direction and shape of the fitted curve.

**Q.** Which “activity change, negative = cytotoxic” value does the source give for O=[N+]([O-])c1ncc[nH]1 here?
**A.** The value was inactive: 8.1%.

**Q.** With C=CCN1CC[C@]23c4c5ccc(O)c4O[C@H]2C(=O)CC[C@@]3(O)[C@H]1C5 as the compound, how does the “activity change, negative = cytotoxic” value read?
**A.** Its value is inactive: -1.38%.

**Q.** For CCN(CC)CCN1C(=O)CN=C(c2ccccc2F)c2cc(Cl)ccc21, which “activity change, negative = cytotoxic” value is on record?
**A.** The value was inactive: -9.15%.

**Q.** For CC(C(O)c1ccccc1)N(C)C/C=C/c1ccccc1 (stereo not given), which Potency is on record?
**A.** The Potency was inconclusive [cytotoxic, single point].

**Q.** Which Potency does the source give for C[C@@]12OC(=O)[C@]1([C@@H](O)[C@@H]1C=CCCC1)NC(=O)[C@H]2CCCl here?
**A.** Its Potency is active: 0.171 µM.

**Q.** For Cc1ncc(CNC(=O)N(CCCl)N=O)c(N)n1, which “activity change, negative = cytotoxic” value is on record?
**A.** Its value is inactive: -17.3%.

**Q.** For CCN1C[C@]2(OC(=O)c3ccccc3NC(C)=O)CC[C@H](OC)[C@@]34[C@H]5CC6[C@@H](OC)C[C@](O)(C(C[C@@H]23)[C@@H]14)[C@@]5(O)[C@@H]6OC, which Potency is on record?
**A.** The Potency was inconclusive [cytotoxic, single point].

**Q.** Which Potency does the source give for CC[C@@H](C(N)=O)N1CCCC1=O here?
**A.** The Potency was inconclusive [cytotoxic, partial curve].

**Q.** Which Potency does the source give for CCC(=O)OC1(c2ccccc2)CCN(C)CC1 here?
**A.** The Potency was inconclusive [cytotoxic, single point].

**Q.** Which “activity change, negative = cytotoxic” value does the source give for CC(C)(C)NCC(O)c1cc(Cl)c(N)c(Cl)c1 (stereo not given) here?
**A.** The value was inactive: -14.7%.

**Q.** For C[C@]12CC[C@H]3[C@@H](CCC4=CC(=O)CC[C@@H]43)[C@@H]1CC[C@@H]2O, which Potency is on record?
**A.** Its Potency is inconclusive [cytotoxic, partial curve, poor fit].

**Q.** Which “activity change, negative = cytotoxic” value does the source give for C=C1CC[C@@]2(O)[C@H]3Cc4ccc(O)c5c4[C@@]2(CCN3CC2CC2)[C@H]1O5 here?
**A.** The value was inactive: 6.07%.

**Q.** Which “activity change, negative = cytotoxic” value does the source give for CCN(CC)C(=O)N[C@@H]1C=C2c3cccc4[nH]cc(c34)C[C@@H]2N(C)C1 here?
**A.** Its value is inactive: 8.26%.

**Q.** Which “activity change, negative = cytotoxic” value does the source give for CCCC(C)C1(CC)C(=O)N=C(S)NC1=O (stereo not given) here?
**A.** The value was inactive: -18.6%.

**Q.** With CCC1(C2=NCCN2)Cc2ccccc2O1 (stereo not given) as the compound, how does the Potency read?
**A.** The Potency was inconclusive [cytotoxic, full curve, poor fit].

**Q.** With N#C[C@H](O[C@@H]1O[C@H](CO[C@@H]2O[C@H](CO)[C@H](O)[C@H](O)[C@H]2O)[C@H](O)[C@H](O)[C@H]1O)c1ccccc1 as the compound, how does the Potency read?
**A.** Its Potency is inconclusive [cytotoxic, single point].

**Q.** For Cc1ncsc1CCCl, which “activity change, negative = cytotoxic” value is on record?
**A.** Its value is inactive: -4.81%.

**Q.** With CC(C)(C)[C@]1(O)C[C@@H]2OC(=O)C[C@@]23C(=O)O[C@@H]2OC(=O)[C@H](O)C213 (stereo not given in full) as the compound, how does the Potency read?
**A.** The Potency was inconclusive [cytotoxic, single point].

**Q.** For COCC1(CO)C(=O)C2CCN1CC2 (stereo not given), which Potency is on record?
**A.** The Potency was active: 1.08 µM.

**Q.** For CC(C)C[C@H](CN)CC(=O)O, which Potency is on record?
**A.** Its Potency is inconclusive [cytotoxic, partial curve, poor fit].

**Q.** Which Potency does the source give for O=C(O)CCCOc1ccc(Cl)cc1Cl here?
**A.** Its Potency is inconclusive [cytotoxic, partial curve].

**Q.** For CCCCCCCCCC(=O)O[C@H]1CC[C@H]2[C@@H]3CCC4=CC(=O)CC[C@@H]4[C@H]3CC[C@]12C, which Potency is on record?
**A.** The Potency was inconclusive [cytotoxic, partial curve, poor fit].

**Q.** With CN1CC[C@]23c4c5ccc(O)c4O[C@H]2[C@@H](O)CC[C@H]3[C@H]1C5 as the compound, how does the “activity change, negative = cytotoxic” value read?
**A.** Its value is inactive: 6.24% [at 115 µM].

**Q.** Which “activity change, negative = cytotoxic” value does the source give for C[C@@H]1CN(C2CCC(C#N)(c3ccc(F)cc3)CC2)CC[C@]1(C(=O)O)c1ccccc1 (stereo not given in full) here?
**A.** Its value is inactive: -12.4%.

**Q.** Which Potency does the source give for CC1(C)C(C=C(Cl)Cl)C1C(=O)OC(C#N)c1cccc(Oc2ccccc2)c1 (stereo not given) here?
**A.** The Potency was inconclusive [cytotoxic, partial curve, poor fit].

**Q.** For O=c1[nH]oc2c1CCNC2, which “activity change, negative = cytotoxic” value is on record?
**A.** The value was inactive: 6.73%.

**Q.** With c1cc2c(cc1[C@H]1OC[C@H]3[C@H]1CO[C@H]3c1ccc3c(c1)OCO3)OCO2 as the compound, how does the Potency read?
**A.** Its Potency is inconclusive [cytotoxic, partial curve].

**Q.** Which Potency does the source give for Cc1nc(-c2ccc(-c3ccc(C(=O)N4CCc5cc6c(cc54)C4(CCN(C)CC4)CO6)cc3)c(C)c2)no1 here?
**A.** Its Potency is inconclusive [cytotoxic, single point].

**Q.** With O=C(O)c1ccc(=O)[nH]c1 as the compound, how does the “activity change, negative = cytotoxic” value read?
**A.** Its value is inactive: 7.8%.

**Q.** Which “activity change, negative = cytotoxic” value does the source give for CSCC[C@@H](NC(=O)[C@@H](Cc1ccccc1)NC(=O)CNC(=O)CNC(=O)[C@@H](N)Cc1ccc(O)cc1)C(=O)O here?
**A.** Its value is inactive: 26.2%.
